Test results reported in publication PMC5531539 (PLoS ONE, 2017).

B1: Herceptin Fab HD102F HD31K LD28R (Fab, V domains shown)
VH: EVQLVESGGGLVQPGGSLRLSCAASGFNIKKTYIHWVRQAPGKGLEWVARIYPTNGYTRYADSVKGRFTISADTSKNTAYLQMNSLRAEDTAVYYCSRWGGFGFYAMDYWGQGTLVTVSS
VL: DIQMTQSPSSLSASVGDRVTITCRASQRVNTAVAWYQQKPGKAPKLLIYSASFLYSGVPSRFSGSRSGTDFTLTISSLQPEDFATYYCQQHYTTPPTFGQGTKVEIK
notes: as the heavy chain of m17 with the stated changes; numbers count on: the 1n8z PDB entry; as the light chain of m17 with the stated change; source: CHO-3E7, co-transfected, His-tag purified
B2: Herceptin Fab HD102F HD31M LD28R (Fab, V domains shown)
VH: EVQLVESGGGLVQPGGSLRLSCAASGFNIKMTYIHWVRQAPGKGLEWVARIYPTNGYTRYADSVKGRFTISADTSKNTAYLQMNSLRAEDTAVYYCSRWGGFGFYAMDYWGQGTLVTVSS
VL: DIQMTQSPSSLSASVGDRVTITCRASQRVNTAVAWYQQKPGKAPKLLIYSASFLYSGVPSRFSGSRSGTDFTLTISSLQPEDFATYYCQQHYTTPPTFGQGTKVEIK
notes: as for B1
B3: Herceptin Fab HD102F HD31K LD28K (Fab, V domains shown)
VH: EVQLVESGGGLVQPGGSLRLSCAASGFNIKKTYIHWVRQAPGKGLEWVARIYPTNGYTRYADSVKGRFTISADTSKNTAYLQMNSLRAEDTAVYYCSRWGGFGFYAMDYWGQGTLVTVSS
VL: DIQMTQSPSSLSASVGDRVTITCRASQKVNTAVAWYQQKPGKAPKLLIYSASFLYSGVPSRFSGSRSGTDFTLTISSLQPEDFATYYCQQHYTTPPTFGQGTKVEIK
notes: as the heavy chain of m17 with the stated changes; numbers count on: the 1n8z PDB entry; as the light chain of m17 with the stated change; also called best triple mutant (Herceptin-HER2); source: CHO-3E7, co-transfected, His-tag purified
B4: Herceptin Fab HD102F HD31M LD28K (Fab, V domains shown)
VH: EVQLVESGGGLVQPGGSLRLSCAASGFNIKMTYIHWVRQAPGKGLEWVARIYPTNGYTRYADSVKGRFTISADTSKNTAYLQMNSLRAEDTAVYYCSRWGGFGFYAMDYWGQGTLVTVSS
VL: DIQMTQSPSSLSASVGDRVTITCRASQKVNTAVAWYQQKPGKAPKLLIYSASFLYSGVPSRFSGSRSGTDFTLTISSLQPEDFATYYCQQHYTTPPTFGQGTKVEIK
notes: as for B1

Molecular target: T1, Recombinant soluble human HER2 extracellular domain (Homo sapiens, UniProt P04626)
T1 construct: human HER2 (ErbB2), soluble extracellular domain; also called HER2 ectodomain; Receptor-tyrosine kinase ErbB2 soluble ectodomain; source: bought: eBioscience
Assay: SPR; BioRad ProteOn XPR36; HER2 or VEGF amine-coupled to a GLC chip (about 150 RU); Fab as analyte, 3-fold dilutions from 30, 60 or 120 nM; 25C; PBS, 0.05% Tween 20, 3.4 mM EDTA; 1:1 binding model, KD from koff/kon
Conditions: both partners purified

Binder	Kd [pM]	koff [s⁻¹]	kon [M⁻¹ s⁻¹]
B1	2.5 ± 1	1.7e-05	6.8e+06
B2	4 ± 1.4	1.9e-05	5e+06
B3	1.9 ± 0.2	1.1e-05	6.1e+06
B4	2.9 ± 0.7	1.4e-05	5.1e+06
